In article PMC3930702:
These are yes or no findings as the source states them, for the method shown. In cells and extracts the contact can be indirect. Some results given as binding are weak or reduced against the parent protein; the word gives no strength. For some of these results: Sequences can lack the tags named with a protein. Blank lines part the entries; values can stand above or below the molecule they belong to.

Chains of the proteins cited; added tags and fusions are not shown.
UniProt P36873: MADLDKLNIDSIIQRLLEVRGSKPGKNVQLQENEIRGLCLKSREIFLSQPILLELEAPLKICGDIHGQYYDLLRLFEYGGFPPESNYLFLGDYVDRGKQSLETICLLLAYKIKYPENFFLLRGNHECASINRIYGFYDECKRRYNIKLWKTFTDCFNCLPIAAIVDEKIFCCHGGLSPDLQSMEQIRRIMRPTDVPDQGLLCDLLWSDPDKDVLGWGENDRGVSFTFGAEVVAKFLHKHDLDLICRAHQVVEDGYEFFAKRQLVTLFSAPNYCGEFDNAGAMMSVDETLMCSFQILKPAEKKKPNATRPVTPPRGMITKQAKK
UniProt Q9Y6K9: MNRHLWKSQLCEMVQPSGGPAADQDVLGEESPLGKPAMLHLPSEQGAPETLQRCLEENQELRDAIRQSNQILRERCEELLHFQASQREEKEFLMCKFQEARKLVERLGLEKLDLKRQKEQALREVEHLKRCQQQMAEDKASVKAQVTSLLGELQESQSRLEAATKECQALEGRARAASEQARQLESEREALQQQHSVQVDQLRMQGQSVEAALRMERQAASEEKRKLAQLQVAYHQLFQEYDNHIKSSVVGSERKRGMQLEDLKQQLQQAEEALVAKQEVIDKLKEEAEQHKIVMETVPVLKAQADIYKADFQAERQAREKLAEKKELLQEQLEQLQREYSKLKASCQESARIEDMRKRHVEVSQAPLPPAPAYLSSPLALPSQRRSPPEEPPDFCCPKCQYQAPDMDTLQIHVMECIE

How the values were obtained:
[1] = target: gamma catalytic subunit of protein phosphatase 1 (PP1-γ), endogenous (human (endogenous in HEK293T)) (UniProt P36873); assay: co-IP; HEK293T cells transfected with 3X-FLAG tagged plasmids; endogenous PP1-γ immunoprecipitated from whole cell lysate (ProteinG Sepharose, overnight at 4°C; lysis buffer 50 mM Tris-HCl pH 7.4, 250 mM NaCl, 1 mM EDTA, 1% Triton-X 100); immunoblot with anti-FLAG or anti-PP1-γ (Figure 4A)
[2] = target: gamma catalytic subunit of protein phosphatase 1 (PP1-γ), endogenous (human (endogenous in HEK293T)) (UniProt P36873); assay: co-IP; unpublished observations: endogenous interaction of endogenous proteins; cells and details not stated
[3] = target: T1, FLAG-TRAF6 1–410 (partial TRAF-C domain mutant) (UniProt Q9Y4K3); assay: co-IP; HEK293T cells co-transfected with full length TRAF6 or FLAG-tagged truncation mutants and 1 ug of PP1-γ WT; FLAG immunoprecipitation, immunoblot with a PP1-γ antibody (Figure 4E)
T1 sequence: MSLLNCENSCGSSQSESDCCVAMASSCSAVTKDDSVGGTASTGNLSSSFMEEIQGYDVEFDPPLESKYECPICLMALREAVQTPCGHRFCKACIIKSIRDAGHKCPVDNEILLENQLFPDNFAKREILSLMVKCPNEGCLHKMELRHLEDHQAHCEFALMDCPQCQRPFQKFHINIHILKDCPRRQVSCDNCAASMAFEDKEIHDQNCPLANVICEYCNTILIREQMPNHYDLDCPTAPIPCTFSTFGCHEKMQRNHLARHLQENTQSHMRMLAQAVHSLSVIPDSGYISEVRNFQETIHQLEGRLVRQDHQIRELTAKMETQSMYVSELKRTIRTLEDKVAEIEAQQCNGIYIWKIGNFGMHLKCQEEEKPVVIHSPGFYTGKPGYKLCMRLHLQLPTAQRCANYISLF

[4] = target: 3XFLAG-tagged IKKγ (NEMO) (UniProt Q9Y6K9); assay: co-IP; HEK293T/TLR7 cells transfected with FLAG-IKKγ or TRAF6 and PP1-γ, stimulated with R848 (10 µM) for 30 min; lysates immunoprecipitated for FLAG (anti-FLAG M2 agarose), immunoblotted for PP1-γ (Figure 4B)
[5] = target: gamma catalytic subunit of protein phosphatase 1 (PP1-γ), endogenous (human (endogenous in HEK293T)) (UniProt P36873); assay: co-IP; told only in the discussion, which points to Figure 4A; the legend of Figure 4A does not name TAK1

binding [1]: binds
Molecule: 3XFLAG-tagged IKKγ (NEMO) (from UniProt Q9Y6K9 1-419)

binding [2]: binds
Molecule: IKKγ (NEMO), endogenous (from UniProt Q9Y6K9 1-419)

binding [3]: binds
binding [4]: binds
Molecule: PP1-γ WT (ectopically expressed) (from UniProt P36873 1-323) (enzyme)

binding [5]: binds
B1: TAK1 (TGF-β-activated kinase 1) (protein, UniProt O43318 1-606)
chain: MSTASAASSSSSSSAGEMIEAPSQVLNFEEIDYKEIEVEEVVGRGAFGVVCKAKWRAKDVAIKQIESESERKAFIVELRQLSRVNHPNIVKLYGACLNPVCLVMEYAEGGSLYNVLHGAEPLPYYTAAHAMSWCLQCSQGVAYLHSMQPKALIHRDLKPPNLLLVAGGTVLKICDFGTACDIQTHMTNNKGSAAWMAPEVFEGSNYSEKCDVFSWGIILWEVITRRKPFDEIGGPAFRIMWAVHNGTRPPLIKNLPKPIESLMTRCWSKDPSQRPSMEEIVKIMTHLMRYFPGADEPLQYPCQYSDEGQSNSATSTGSFMDIASTNTSNKSDTNMEQVPATNDTIKRLESKLLKNQAKQQSESGRLSLGASRGSSVESLPPTSEGKRMSADMSEIEARIAATTAYSKPKRGHRKTASFGNILDVPEIVISGNGQPRRRSIQDLTVTGTEPGQVSSRSSSPSVRMITTSGPTSEKPTRSHPWTPDDSTDTNGSDNSIPMAYLTLDHQLQPLAPCPNSKESMAVFEQHCKMAQEYMKVQTEIALLLQRKQELVAELDQDEKDQQNTSRLVQEHKKLLDENKSLSTYYQQCKKQLEVIRSQQQKRQGTS

binding [1]: no binding
B2: 3XFLAG-tagged TBK1 (protein, UniProt Q9UHD2 1-729)
chain: MQSTSNHLWLLSDILGQGATANVFRGRHKKTGDLFAIKVFNNISFLRPVDVQMREFEVLKKLNHKNIVKLFAIEEETTTRHKVLIMEFCPCGSLYTVLEEPSNAYGLPESEFLIVLRDVVGGMNHLRENGIVHRDIKPGNIMRVIGEDGQSVYKLTDFGAARELEDDEQFVSLYGTEEYLHPDMYERAVLRKDHQKKYGATVDLWSIGVTFYHAATGSLPFRPFEGPRRNKEVMYKIITGKPSGAISGVQKAENGPIDWSGDMPVSCSLSRGLQVLLTPVLANILEADQEKCWGFDQFFAETSDILHRMVIHVFSLQQMTAHKIYIHSYNTATIFHELVYKQTKIISSNQELIYEGRRLVLEPGRLAQHFPKTTEENPIFVVSREPLNTIGLIYEKISLPKVHPRYDLDGDASMAKAITGVVCYACRIASTLLLYQELMRKGIRWLIELIKDDYNETVHKKTEVVITLDFCIRNIEKTVKVYEKLMKINLEAAELGEISDIHTKLLRLSSSQGTIETSLQDIDSRLSPGGSLADAWAHQEGTHPKDRNVEKLQVLLNCMTEIYYQFKKDKAERRLAYNEEQIHKFDKQKLYYHATKAMTHFTDECVKKYEAFLNKSEEWIRKMLHLRKQLLSLTNQCFDIEEEVSKYQEYTNELQETLPQKMFTASSGIKHTMTPIYPSSNTLVEMTLGMKKLKEEMEGVVKELAENNHILERFGSLTMDGGLRNVDCL

binding [1]: no binding
B3: 3XFLAG-tagged IKKε (protein, UniProt Q14164 1-716)
chain: MQSTANYLWHTDDLLGQGATASVYKARNKKSGELVAVKVFNTTSYLRPREVQVREFEVLRKLNHQNIVKLFAVEETGGSRQKVLVMEYCSSGSLLSVLESPENAFGLPEDEFLVVLRCVVAGMNHLRENGIVHRDIKPGNIMRLVGEEGQSIYKLTDFGAARELDDDEKFVSVYGTEEYLHPDMYERAVLRKPQQKAFGVTVDLWSIGVTLYHAATGSLPFIPFGGPRRNKEIMYRITTEKPAGAIAGAQRRENGPLEWSYTLPITCQLSLGLQSQLVPILANILEVEQAKCWGFDQFFAETSDILQRVVVHVFSLSQAVLHHIYIHAHNTIAIFQEAVHKQTSVAPRHQEYLFEGHLCVLEPSVSAQHIAHTTASSPLTLFSTAIPKGLAFRDPALDVPKFVPKVDLQADYNTAKGVLGAGYQALRLARALLDGQELMFRGLHWVMEVLQATCRRTLEVARTSLLYLSSSLGTERFSSVAGTPEIQELKAAAELRSRLRTLAEVLSRCSQNITETQESLSSLNRELVKSRDQVHEDRSIQQIQCCLDKMNFIYKQFKKSRMRPGLGYNEEQIHKLDKVNFSHLAKRLLQVFQEECVQKYQASLVTHGKRMRVVHETRNHLRLVGCSVAACNTEAQGVQESLSKLLEELSHQLLQDRAKGAQASPPPIAPYPSPTRKDLLLHMQELCEGMKLLASDLLDNNRIIERLNRVPAPPDV
